Experimental data taken from the supplement of paper PMC8728848.
The other results are listed elsewhere or left out.

Legend:
Test in all cases: glycan array binding signal (z-score within array); higher = stronger binding
Conditions in all cases: glycan notation: IUPAC condensed, linker removed
[1] = biological target: Gal(b1-3)GlcNAc(b1-6)GalNAc
Method in brief: (§1)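 The Consortium for Functional Glycomics database supplied 3228 glycan arrays, of which those lacking an available protein sequence were dropped. The binding signal, a within-array Z-score, was averaged across arrays of the same protein sequence and across linkers. Negative scores can be read as non-binding.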

[2] = biological target: Gal(b1-3)GlcNAc(b1-6)[Gal(b1-3)]GalNAc
Method in brief: as §1

Gal(b1-3)GlcNAc6S = biological target: Gal(b1-3)GlcNAc6S
Method in brief: as §1

[3] = biological target: Gal(b1-3)[Fuc(a1-4)]GlcNAc
Method in brief: as §1

[4] = biological target: Gal(b1-3)[Fuc(a1-4)]GlcNAc(b1-2)Man
Method in brief: as §1

[5] = biological target: Gal(b1-3)[Fuc(a1-4)]GlcNAc(b1-2)Man(a1-3)[Gal(b1-3)[Fuc(a1-4)]GlcNAc(b1-2)Man(a1-6)]Man(b1-4)GlcNAc(b1-4)[Fuc(a1-6)]GlcNAc
Method in brief: as §1

[6] = biological target: Gal(b1-3)[Fuc(a1-4)]GlcNAc(b1-3)Gal(b1-3)[Fuc(a1-4)]GlcNAc
Method in brief: as §1

[7] = biological target: Gal(b1-3)[Fuc(a1-4)]GlcNAc(b1-3)Gal(b1-4)[Fuc(a1-3)]GlcNAc
Method in brief: as §1

[8] = biological target: Gal(b1-3)[Fuc(a1-4)]GlcNAc(b1-6)GalNAc
Method in brief: as §1

[9] = biological target: Gal(b1-3)[GlcNAc(b1-6)]GalNAc
Method in brief: as §1

[10] = biological target: Gal(b1-3)[Neu5Ac(a2-6)]GalNAc
Method in brief: as §1

[11] = biological target: Gal(b1-3)[Neu5Ac(a2-6)]GlcNAc(b1-4)Gal(b1-4)Glc
Method in brief: as §1

[12] = biological target: Gal(b1-3)[Neu5Ac(b2-6)]GalNAc
Method in brief: as §1

Gal(b1-4)Gal = biological target: Gal(b1-4)Gal
Method in brief: as §1

[13] = biological target: Gal(b1-4)GalNAc(a1-3)[Fuc(a1-2)]Gal(b1-4)GlcNAc
Method in brief: as §1

[14] = biological target: Gal(b1-4)GalNAc(b1-3)[Fuc(a1-2)]Gal(b1-4)GlcNAc
Method in brief: as §1

Gal(b1-4)Glc = biological target: Gal(b1-4)Glc
Method in brief: as §1

Gal(b1-4)Glc6S = biological target: Gal(b1-4)Glc6S
Method in brief: as §1

Gal(b1-4)GlcNAc = biological target: Gal(b1-4)GlcNAc
Method in brief: as §1

[15] = biological target: Gal(b1-4)GlcNAc(a1-6)Gal(b1-4)GlcNAc
Method in brief: as §1

Gal(b1-4)GlcNAc(b1-2)Man = biological target: Gal(b1-4)GlcNAc(b1-2)Man
Method in brief: as §1

[16] = biological target: Gal(b1-4)GlcNAc(b1-2)Man(a1-3)Man(b1-4)GlcNAc(b1-4)GlcNAc
Method in brief: as §1

[17] = biological target: Gal(b1-4)GlcNAc(b1-2)Man(a1-3)[Gal(b1-4)GlcNAc(b1-2)Man(a1-6)]Man(b1-4)GlcNAc(b1-4)GlcNAc
Method in brief: as §1

[18] = biological target: Gal(b1-4)GlcNAc(b1-2)Man(a1-3)[Gal(b1-4)GlcNAc(b1-2)Man(a1-6)]Man(b1-4)GlcNAc(b1-4)[Fuc(a1-6)]GlcNAc
Method in brief: as §1

[19] = biological target: Gal(b1-4)GlcNAc(b1-2)Man(a1-3)[Gal(b1-4)GlcNAc(b1-2)Man(a1-6)][Gal(b1-4)GlcNAc(b1-4)]Man(b1-4)GlcNAc(b1-4)[Fuc(a1-6)]GlcNAc
Method in brief: as §1

[20] = biological target: Gal(b1-4)GlcNAc(b1-2)Man(a1-3)[Gal(b1-4)GlcNAc(b1-2)Man(a1-6)][GlcNAc(b1-4)]Man(b1-4)GlcNAc(b1-4)[Fuc(a1-6)]GlcNAc
Method in brief: as §1

[21] = biological target: Gal(b1-4)GlcNAc(b1-2)Man(a1-3)[GlcNAc(b1-2)Man(a1-6)]Man(b1-4)GlcNAc(b1-4)GlcNAc
Method in brief: as §1

[22] = biological target: Gal(b1-4)GlcNAc(b1-2)Man(a1-3)[GlcNAc(b1-4)][Gal(b1-4)GlcNAc(b1-2)Man(a1-6)]Man(b1-4)GlcNAc(b1-4)GlcNAc
Method in brief: as §1

[23] = biological target: Gal(b1-4)GlcNAc(b1-2)Man(a1-3)[Man(a1-6)]Man(b1-4)GlcNAc(b1-4)GlcNAc
Method in brief: as §1

[24] = biological target: Gal(b1-4)GlcNAc(b1-2)Man(a1-6)Man(b1-4)GlcNAc(b1-4)GlcNAc
Method in brief: as §1

[25] = biological target: Gal(b1-4)GlcNAc(b1-2)Man(a1-6)[GlcNAc(b1-2)Man(a1-3)]Man(b1-4)GlcNAc(b1-4)GlcNAc
Method in brief: as §1

[26] = biological target: Gal(b1-4)GlcNAc(b1-2)Man(a1-6)[Man(a1-3)]Man(b1-4)GlcNAc(b1-4)GlcNAc
Method in brief: as §1

[27] = biological target: Gal(b1-4)GlcNAc(b1-2)[Gal(b1-4)GlcNAc(b1-4)]Man(a1-3)[Gal(b1-4)GlcNAc(b1-2)Man(a1-6)]Man(b1-4)GlcNAc(b1-4)GlcNAc
Method in brief: as §1

[28] = biological target: Gal(b1-4)GlcNAc(b1-2)[Gal(b1-4)GlcNAc(b1-4)]Man(a1-3)[Gal(b1-4)GlcNAc(b1-2)[Gal(b1-4)GlcNAc(b1-6)]Man(a1-6)]Man(b1-4)GlcNAc(b1-4)GlcNAc
Method in brief: as §1

[29] = biological target: Gal(b1-4)GlcNAc(b1-2)[Gal(b1-4)GlcNAc(b1-4)]Man(a1-3)[GlcNAc(b1-4)][Gal(b1-4)GlcNAc(b1-2)Man(a1-6)]Man(b1-4)GlcNAc(b1-4)GlcNAc
Method in brief: as §1

[30] = biological target: Gal(b1-4)GlcNAc(b1-2)[Gal(b1-4)GlcNAc(b1-4)]Man(a1-3)[GlcNAc(b1-4)][Gal(b1-4)GlcNAc(b1-2)[Gal(b1-4)GlcNAc(b1-6)]Man(a1-6)]Man(b1-4)GlcNAc(b1-4)GlcNAc
Method in brief: as §1

[31] = biological target: Gal(b1-4)GlcNAc(b1-2)[Gal(b1-4)GlcNAc(b1-6)]Man(a1-6)[Gal(b1-4)GlcNAc(b1-2)Man(a1-3)]Man(b1-4)GlcNAc(b1-4)GlcNAc
Method in brief: as §1

[32] = biological target: Gal(b1-4)GlcNAc(b1-2)[Gal(b1-4)GlcNAc(b1-6)]Man(a1-6)[Gal(b1-4)GlcNAc(b1-2)Man(a1-3)]Man(b1-4)GlcNAc(b1-4)[Fuc(a1-6)]GlcNAc
Method in brief: as §1

[33] = biological target: Gal(b1-4)GlcNAc(b1-2)[Gal(b1-4)GlcNAc(b1-6)]Man(a1-6)[GlcNAc(b1-4)][Gal(b1-4)GlcNAc(b1-2)Man(a1-3)]Man(b1-4)GlcNAc(b1-4)GlcNAc
Method in brief: as §1

[34] = biological target: Gal(b1-4)GlcNAc(b1-2)[Gal(b1-4)GlcNAc(b1-6)]Man(a1-6)[GlcNAc(b1-4)][Gal(b1-4)GlcNAc(b1-2)[Gal(b1-4)GlcNAc(b1-4)]Man(a1-3)]Man(b1-4)GlcNAc(b1-4)[Fuc(a1-6)]GlcNAc
Method in brief: as §1

[35] = biological target: Gal(b1-4)GlcNAc(b1-3)Gal(b1-3)GalNAc
Method in brief: as §1

[36] = biological target: Gal(b1-4)GlcNAc(b1-3)Gal(b1-3)GlcNAc
Method in brief: as §1

[37] = biological target: Gal(b1-4)GlcNAc(b1-3)Gal(b1-4)Glc
Method in brief: as §1

[38] = biological target: Gal(b1-4)GlcNAc(b1-3)Gal(b1-4)GlcNAc
Method in brief: as §1

[39] = biological target: Gal(b1-4)GlcNAc(b1-3)Gal(b1-4)GlcNAc(b1-2)Man(a1-3)[Gal(b1-4)GlcNAc(b1-3)Gal(b1-4)GlcNAc(b1-2)Man(a1-6)]Man(b1-4)GlcNAc(b1-4)GlcNAc
Method in brief: as §1

B1: PFL (Pseudomonas fluorescens) (protein)
chain: MSKYAVANQWGGSSAPWHPGGTWVLGARDNQNVVAIEIKSGDGGKSFTGTMTYAGEGPIGFKAQRTGQNQYNVENQWGGNDAPWHPGGKWVIGGRDNQNVIALSVTSSDGGKNLSGTNTYANEGPIGFRGQIE
glycan array binding signal (z-score) [1]: -0.117 | glycan array binding signal (z-score) [2]: -0.093 | glycan array binding signal (z-score) (Gal(b1-3)GlcNAc6S): -0.115 | glycan array binding signal (z-score) [3]: -0.113 | glycan array binding signal (z-score) [4]: -0.112 | glycan array binding signal (z-score) [5]: 0.665 | glycan array binding signal (z-score) [6]: -0.096 | glycan array binding signal (z-score) [7]: -0.115 | glycan array binding signal (z-score) [8]: -0.107 | glycan array binding signal (z-score) [9]: -0.118 | glycan array binding signal (z-score) [10]: -0.116 | glycan array binding signal (z-score) [11]: -0.117 | glycan array binding signal (z-score) [12]: -0.117 | glycan array binding signal (z-score) (Gal(b1-4)Gal): -0.112 | glycan array binding signal (z-score) [13]: -0.114 | glycan array binding signal (z-score) [14]: -0.115 | glycan array binding signal (z-score) (Gal(b1-4)Glc): -0.116 | glycan array binding signal (z-score) (Gal(b1-4)Glc6S): -0.113 | glycan array binding signal (z-score) (Gal(b1-4)GlcNAc): -0.112 | glycan array binding signal (z-score) [15]: -0.116 | glycan array binding signal (z-score) (Gal(b1-4)GlcNAc(b1-2)Man): -0.108 | glycan array binding signal (z-score) [16]: -0.114 | glycan array binding signal (z-score) [17]: -0.113 | glycan array binding signal (z-score) [18]: 0.032 | glycan array binding signal (z-score) [19]: -0.103 | glycan array binding signal (z-score) [20]: -0.119 | glycan array binding signal (z-score) [21]: 0.149 | glycan array binding signal (z-score) [22]: -0.117 | glycan array binding signal (z-score) [23]: -0.114 | glycan array binding signal (z-score) [24]: -0.112 | glycan array binding signal (z-score) [25]: -0.113 | glycan array binding signal (z-score) [26]: -0.112 | glycan array binding signal (z-score) [27]: -0.036 | glycan array binding signal (z-score) [28]: 0.988 | glycan array binding signal (z-score) [29]: -0.117 | glycan array binding signal (z-score) [30]: -0.117 | glycan array binding signal (z-score) [31]: -0.059 | glycan array binding signal (z-score) [32]: -0.111 | glycan array binding signal (z-score) [33]: -0.115 | glycan array binding signal (z-score) [34]: -0.114 | glycan array binding signal (z-score) [35]: -0.116 | glycan array binding signal (z-score) [36]: -0.116 | glycan array binding signal (z-score) [37]: -0.113 | glycan array binding signal (z-score) [38]: -0.12 | glycan array binding signal (z-score) [39]: -0.104
